US20050191730A1 (Regeneron, published 2005)
Numbering of substitutions follows the chain as printed. Names may count otherwise. Where two headings read alike, the source gives them in different places. Blank lines part the entries; values can stand above or below the binder they belong to.

How the values were obtained:
human IL-4 [1] = target: T1, human IL-4 (human, UniProt P05112 25-153); experiment: cell-based or functional assay
T1 sequence (looked up): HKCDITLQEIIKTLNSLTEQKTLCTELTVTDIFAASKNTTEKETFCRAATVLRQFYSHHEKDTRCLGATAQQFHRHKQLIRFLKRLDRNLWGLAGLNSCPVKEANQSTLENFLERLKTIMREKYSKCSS

human IL-13 [2] = target: T2, human IL-13 (human, UniProt P35225 in part, limits assumed); experiment: cell-based or functional assay
human IL-4 [3] = target: T1, human IL-4; experiment: cell-based or functional assay; remark: listed apart in the source
human IL-13 [4] = target: T2, human IL-13; experiment: cell-based or functional assay; remark: listed apart in the source
T2 sequence (P35225 35-146 limits assumed): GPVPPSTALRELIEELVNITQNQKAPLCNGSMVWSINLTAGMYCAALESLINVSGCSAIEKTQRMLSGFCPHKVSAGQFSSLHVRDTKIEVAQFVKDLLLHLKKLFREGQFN

human IL-4 [5] = target: T1, human IL-4; experiment: cell-based or functional assay; remark: listed apart in the source
human IL-13 [6] = target: T2, human IL-13; experiment: cell-based or functional assay; remark: listed apart in the source
human IL-4 [7] = target: T1, human IL-4; experiment: cell-based or functional assay; remark: listed apart in the source
human IL-13 [8] = target: T2, human IL-13; experiment: cell-based or functional assay; remark: listed apart in the source
human IL-13 [9] = target: T2, human IL-13; experiment: BIAcore, fusion captured by anti-human Fc, cytokine injected
human IL-13 [10] = target: T2, human IL-13; experiment: cell-based or functional assay; remark: listed apart in the source

- IL-4 Inhibition (fold vs parent 1132 IC50, TF1 bioassay, CHO supernatant) (human IL-4 [5]): 2.06 fold
- IL-13 Inhibition (fold vs parent 1132 IC50, TF1 bioassay, CHO supernatant) (human IL-13 [6]): 1.03 fold
B2: IL-4/13 fusion polypeptide variant 2683 (Fc fusion)
chain: GNMKVLQEPTCVSDYMSISTCEWKMNGPTNCSTELRLLYQLVFYNSEAHTCIPENNGGAGCVCHLLMDDVVSADNYTLDLWAGQQLLWKGSFKPSEHVKPRAPGNLTVHTNVSDTLLLTWSNPYPPDNFLYNHLTYAVNIWSENDPADFRIYNVTYLEPSLRIAASTLKSGISYRARVRAWAQAYNTTWSEWSPSTKWHNSYREPFEQAPTETQPPVTNLSVSVENLATVIWTWNPPEGASSNCSLWYFSHFGDKQDKKIAPETRRSIEVPLNERICLQVGSQCSTNESEKPSILVEKCISPPEGDPESAVTELQCIWHNLSYMKCSWLPGRNTSPDTNYTLYYWHRSLEKIHQCENIFREGQYFGCSFDLTKVKDSSFEQHSVQIMVKDNAGKIKPSFNIVPLTSRVKPDPPHIKNLSFHNDDLYVQWENPQNFISRCLFYEVEVNNSQTETHNVFYVQEAKCENPEFERNVENTSCFMVPGVLPDTLNTVRIRVKTNKLCYEDDKLWSNWSQEMSIGKKRNSTG[human IgG1 Fc omitted]

- IL-4 Inhibition (fold vs parent 1132 IC50, TF1 bioassay, CHO supernatant) (human IL-4 [7]): < 0.1 fold
- IL-13 Inhibition (fold vs parent 1132 IC50, TF1 bioassay, CHO supernatant) (human IL-13 [8]): 0.27 fold
B3: IL-4/13 fusion polypeptide variant 2643 (Fc fusion)
chain: B2 chain with Y44L, N45L, E47G, F129Y, A184S

- IL-4 Inhibition (fold vs parent 1132 IC50, TF1 bioassay, CHO supernatant) (human IL-4 [7]): < 0.1 fold
- IL-13 Inhibition (fold vs parent 1132 IC50, TF1 bioassay, CHO supernatant) (human IL-13 [8]): 0.05 fold
B4: IL-4/13 fusion polypeptide variant 2646 (Fc fusion)
chain: B2 chain with Y44L, N45L, F129Y, S166H, T167D, L168A, K169W, A184S

- IL-4 Inhibition (fold vs parent 1132 IC50, TF1 bioassay, CHO supernatant) (human IL-4 [7]): 0.36 fold
- IL-13 Inhibition (fold vs parent 1132 IC50, TF1 bioassay, CHO supernatant) (human IL-13 [8]): 0.21 fold
B5: IL-4/13 fusion polypeptide variant 2644 (Fc fusion)
chain: B2 chain with Y44L, N45L, E96T, F129Y, A184S

- IL-13 IC50 (pM), TF1 bioassay (human IL-13 [10]): 9 pM
- Kd (human IL-13 [9]): 4.96 pM
B9: IL-4/13 fusion polypeptide variant 2681 (Fc fusion)
chain: B2 chain with D148Y, F149S, A184S
notes: L67Y, L68N, Y152F, D171Y, F172S from parent 1132; also called construct 2681

- Kd (human IL-13 [9]): 5.09 pM
B11: IL-4/13 fusion polypeptide variant 2647 (Fc fusion)
chain: B2 chain with Y44L, N45L, F129Y, D148Y, F149S, A184S

- Kd (human IL-13 [9]): 4.26 pM
B13: IL-4/13 fusion polypeptide variant 2651 (Fc fusion)
chain: B2 chain with A184S

Second part, the binder before the results:

B1: IL-4/13 fusion polypeptide variant 2601 (Fc fusion)
chain: B2 chain with Y44Q, N45S, A184S
- IL-4 Inhibition (fold vs parent 1132 IC50, TF1 bioassay, CHO supernatant) (human IL-4 [1]): 0.31 fold
- IL-13 Inhibition (fold vs parent 1132 IC50, TF1 bioassay, CHO supernatant) (human IL-13 [2]): 0.77 fold
- IL-4 Inhibition (fold vs parent 1132 IC50, TF1 bioassay, CHO supernatant) (human IL-4 [3]): 0.31 fold
- IL-13 Inhibition (fold vs parent 1132 IC50, TF1 bioassay, CHO supernatant) (human IL-13 [4]): 0.77 fold

B6: IL-4/13 fusion polypeptide variant 2600 (Fc fusion)
chain: B2 chain with Y44L, N45L, F129Y, A180I, A182I, A184S
- IL-4 Inhibition (fold vs parent 1132 IC50, TF1 bioassay, CHO supernatant) (human IL-4 [1]): 0.68 fold
- IL-13 Inhibition (fold vs parent 1132 IC50, TF1 bioassay, CHO supernatant) (human IL-13 [2]): 0.06 fold

B7: IL-4/13 fusion polypeptide variant 2561 (Fc fusion)
chain: B2 chain with Y44L, N45L, F129K, A184S
- IL-4 Inhibition (fold vs parent 1132 IC50, TF1 bioassay, CHO supernatant) (human IL-4 [1]): 0.16 fold
- IL-13 Inhibition (fold vs parent 1132 IC50, TF1 bioassay, CHO supernatant) (human IL-13 [2]): 0.15 fold

B8: IL-4/13 fusion polypeptide variant 2560 (Fc fusion)
chain: B2 chain with Y44L, N45L, A184S
- Kd (human IL-13 [9]): 2.09 pM

B10: IL-4/13 fusion polypeptide variant 2547 (Fc fusion)
chain: B2 chain with Y44Q, N45S, F129Y, A184S
- Kd (human IL-13 [9]): 2.73 pM

B12: IL-4/13 fusion polypeptide variant 2602 (Fc fusion)
chain: B2 chain with F129Y, A184S
- Kd (human IL-13 [9]): 3.01 pM

B14: IL-4/13 fusion polypeptide variant 2586 (Fc fusion)
chain: B2 chain with Y44L, N45L, D148Y, F149S, Y152H, A184S
- Kd (human IL-13 [9]): 2.17 pM

B15: IL-4/13 fusion polypeptide variant 2558 (Fc fusion)
chain: B2 chain with Y44L, N45L, F129Y, D148Y, F149S, Y152H, R175S, A184S
- Kd (human IL-13 [9]): 1.63 pM
